The values below come from article PMC4336329 (PLoS ONE, 2015).

The structures appear in SMILES notation. Hit rate of the full screen: of about 310,000 compounds, about 14,000 (4.5%) showed an effect of 50% or more. Effects have a minus sign here. Some of the results follow.
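Also: peak tail current of the secondary pulse compared with the same well before compound.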

Sequence of human ether-à-go-go-related gene (hERG) potassium channel (Q12809 whole entry, looked up): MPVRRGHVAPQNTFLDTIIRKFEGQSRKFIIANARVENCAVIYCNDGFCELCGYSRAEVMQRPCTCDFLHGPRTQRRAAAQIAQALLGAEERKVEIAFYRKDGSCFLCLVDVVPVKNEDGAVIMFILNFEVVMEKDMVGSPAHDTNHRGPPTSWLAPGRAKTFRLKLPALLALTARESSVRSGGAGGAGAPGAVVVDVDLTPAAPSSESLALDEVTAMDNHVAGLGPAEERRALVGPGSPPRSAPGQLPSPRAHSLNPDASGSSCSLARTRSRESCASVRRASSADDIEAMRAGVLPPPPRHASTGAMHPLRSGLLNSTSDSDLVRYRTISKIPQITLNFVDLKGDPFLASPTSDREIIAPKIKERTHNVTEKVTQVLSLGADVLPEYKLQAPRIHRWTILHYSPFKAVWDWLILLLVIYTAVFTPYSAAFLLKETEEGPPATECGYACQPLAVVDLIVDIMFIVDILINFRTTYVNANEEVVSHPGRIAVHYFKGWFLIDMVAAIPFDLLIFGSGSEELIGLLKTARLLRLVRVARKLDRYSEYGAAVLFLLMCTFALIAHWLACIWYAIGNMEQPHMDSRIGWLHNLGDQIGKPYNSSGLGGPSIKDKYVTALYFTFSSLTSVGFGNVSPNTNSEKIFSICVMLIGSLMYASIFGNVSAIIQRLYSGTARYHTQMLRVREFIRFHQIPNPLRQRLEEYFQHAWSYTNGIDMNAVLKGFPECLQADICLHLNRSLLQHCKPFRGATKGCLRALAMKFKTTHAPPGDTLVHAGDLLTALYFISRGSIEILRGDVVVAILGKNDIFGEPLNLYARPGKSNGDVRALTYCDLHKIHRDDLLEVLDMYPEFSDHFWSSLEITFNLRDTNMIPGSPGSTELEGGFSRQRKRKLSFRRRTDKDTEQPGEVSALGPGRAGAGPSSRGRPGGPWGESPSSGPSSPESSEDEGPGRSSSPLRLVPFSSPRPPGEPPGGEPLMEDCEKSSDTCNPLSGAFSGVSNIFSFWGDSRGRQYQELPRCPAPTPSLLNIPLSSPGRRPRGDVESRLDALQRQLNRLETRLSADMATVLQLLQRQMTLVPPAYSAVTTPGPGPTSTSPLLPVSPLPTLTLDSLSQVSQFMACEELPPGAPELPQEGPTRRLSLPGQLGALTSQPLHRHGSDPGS

This experiment has as its target human ether-à-go-go-related gene (hERG) potassium channel (human, UniProt Q12809). Nature of the experiment: primary screen, population patch clamp on CHO cells stably expressing hERG.
Take `CCOc1cc(N2CCOCC2)c(OCC)cc1NC(=O)c1ccc2ncsc2c1`: the “hERG current change (%, negative = inhibition) at 10uM” value was determined as 11.3%.
On to `Cc1ccc(/C=C/S(=O)(=O)NCC(=O)OCC(=O)Nc2ccc(C(N)=O)cc2)cc1`, for which the “hERG current change (%, negative = inhibition) at 10uM” value is -14.2%.
Take `COc1ccc(C2CC(c3c(O)cc(C)oc3=O)=NCCS2)c(OC)c1` (centres unmarked): the “hERG current change (%, negative = inhibition) at 10uM” value is reported as -10.7%.
In the case of `Cc1nc(N2CCN(c3ccccc3O)CC2)c2c(-c3ccccc3)csc2n1` it was 10.3%; in that of `NC(=O)c1ccsc1NC(=O)c1ccc(S(=O)(=O)N2CCCCC2)cc1`, -31.5%; in that of `Cc1cc(C)nc(N2CCC(C(=O)Nc3ccc4c(c3)OCO4)CC2)n1`, -5.31%.
Regarding `Cc1cccc(C)c1NC(=O)c1cc2c(=O)c3ccccc3oc2nc1C(F)(F)F`, the “hERG current change (%, negative = inhibition) at 10uM” value is -3.38%.
Regarding `COc1ccc(C)cc1NS(=O)(=O)c1ccc(Cl)nc1`, the “hERG current change (%, negative = inhibition) at 10uM” value is -9.58%.
Then `CCc1ccc(NC(=O)C(=O)NCCN2CCN(C(=O)c3ccco3)CC2)cc1`, with -67%; and `COc1ccc(S(=O)(=O)Nc2ccc(F)c(F)c2)cc1C(=O)N1CCOCC1`, with 13.3%; and `O=C1/C(=C/c2cccs2)SC(=S)N1CCC(=O)N1CCCCC1CCO` (centres unmarked), with 5.57%.
In the case of `CC(=O)Nc1ccc(S(=O)(=O)N(C)CC(=O)OCC(=O)Nc2cc(C)on2)cc1` it was 7.03%.
For `Cn1c(C(C#N)C(=O)c2ccco2)nc2ccccc21` (centres unmarked), the “hERG current change (%, negative = inhibition) at 10uM” value turned out to be 14.6%.
Then `O=C(NC1CC1)C1CCN(S(=O)(=O)c2ccc(Cl)c([N+](=O)[O-])c2)CC1`, with -14.1%; and `CCc1nc(SCC(=O)c2c[nH]c3ccccc23)n[nH]1`, with 15.7%; and `O=C1NC(=S)S/C1=C/c1ccc(OC(=O)c2ccco2)cc1`, with 14%.
With `CCN(CC)C(=O)c1ccc(-c2ccccc2)cc1`, the “hERG current change (%, negative = inhibition) at 10uM” value was -1.32%.
For `NS(=O)(=O)c1ccc(N/N=C/c2ccc[nH]2)c([N+](=O)[O-])c1`, the “hERG current change (%, negative = inhibition) at 10uM” value came to 0.228%.
For `Cc1nc(SCC(=O)N2CCN(c3ccccc3)CC2)c2oc3ccccc3c2n1`, the “hERG current change (%, negative = inhibition) at 10uM” value is -48%.
As to `CC(C)c1nc2sc3c(SCC(N)=O)ncnc3c2c2c1CCC2`, the “hERG current change (%, negative = inhibition) at 10uM” value is listed as 11.9%.
Then `CCC[C@H](N[C@@H](C)C(=O)N1[C@H](C(=O)O)C[C@@H]2CCCC[C@@H]21)C(=O)OCC`, with 9.19%; and `CCOCCCNC(=O)C(c1ccc(OC)cc1)N(Cc1ccc2c(c1)OCO2)C(=O)c1cnccn1` (centres unmarked), with 8.96%; and `CCCC(=O)n1nc(-c2ccccc2)nc1N`, with 15.4%.
